Experimental data taken from paper PMC7668297 (Journal of medicinal chemistry, 2020).

Molecular target: human topoisomerase IIα (Homo sapiens, UniProt P11388)

Compound | Topoisomerase IIα inhibition IC50 ± SD
CN(c1cccc(F)c1)c1nc(-c2ccncc2)nc2c1CC(N)CC2 (centres unmarked) [Compound 7, N4-(3-fluorophenyl)-N4-methyl-2-(4-pyridyl)-5,6,7,8-tetrahydroquinazoline-4,6-diamine] | inactive compound
NC1CCc2nc(-c3ccncc3)nc(Nc3ccccc3F)c2C1 (centres unmarked) [Compound 9, N4-(2-fluorophenyl)-2-(4-pyridyl)-5,6,7,8-tetrahydroquinazoline-4,6-diamine] | inactive compound
COc1ccc(Nc2nc(-c3ccncc3)nc3c2CC(N)CC3)cc1 (centres unmarked) [Compound 12, N4-(4-methoxyphenyl)-2-(4-pyridyl)-5,6,7,8-tetrahydroquinazoline-4,6-diamine] | complete loss of activity

The remaining lines, values ahead:

Topoisomerase IIα inhibition IC50 ± SD | Compound
inactive compound | NC1CCc2nc(-c3ccncc3)nc(Nc3ccccc3)c2C1 (centres unmarked) [Compound 8, N4-phenyl-2-(4-pyridyl)-5,6,7,8-tetrahydroquinazoline-4,6-diamine]
inactive compound | CN(C)c1cccc(Nc2nc(-c3ccncc3)nc3c2CC(N)CC3)c1 (centres unmarked) [Compound 13, N4-[3-(dimethylamino)phenyl]-2-(4-pyridyl)-5,6,7,8-tetrahydroquinazoline-4,6-diamine]
